These are yes or no findings as the source states them, for the method shown. In cells and extracts the contact can be indirect. Some binding calls cover weakened binding; strength is not graded here. For some assays here: Tags and fused reporters may be left off the sequences shown.
T1: Retinoblastoma protein RB1 (mouse (endogenous in testis)) (UniProt P13405)
T1 sequence: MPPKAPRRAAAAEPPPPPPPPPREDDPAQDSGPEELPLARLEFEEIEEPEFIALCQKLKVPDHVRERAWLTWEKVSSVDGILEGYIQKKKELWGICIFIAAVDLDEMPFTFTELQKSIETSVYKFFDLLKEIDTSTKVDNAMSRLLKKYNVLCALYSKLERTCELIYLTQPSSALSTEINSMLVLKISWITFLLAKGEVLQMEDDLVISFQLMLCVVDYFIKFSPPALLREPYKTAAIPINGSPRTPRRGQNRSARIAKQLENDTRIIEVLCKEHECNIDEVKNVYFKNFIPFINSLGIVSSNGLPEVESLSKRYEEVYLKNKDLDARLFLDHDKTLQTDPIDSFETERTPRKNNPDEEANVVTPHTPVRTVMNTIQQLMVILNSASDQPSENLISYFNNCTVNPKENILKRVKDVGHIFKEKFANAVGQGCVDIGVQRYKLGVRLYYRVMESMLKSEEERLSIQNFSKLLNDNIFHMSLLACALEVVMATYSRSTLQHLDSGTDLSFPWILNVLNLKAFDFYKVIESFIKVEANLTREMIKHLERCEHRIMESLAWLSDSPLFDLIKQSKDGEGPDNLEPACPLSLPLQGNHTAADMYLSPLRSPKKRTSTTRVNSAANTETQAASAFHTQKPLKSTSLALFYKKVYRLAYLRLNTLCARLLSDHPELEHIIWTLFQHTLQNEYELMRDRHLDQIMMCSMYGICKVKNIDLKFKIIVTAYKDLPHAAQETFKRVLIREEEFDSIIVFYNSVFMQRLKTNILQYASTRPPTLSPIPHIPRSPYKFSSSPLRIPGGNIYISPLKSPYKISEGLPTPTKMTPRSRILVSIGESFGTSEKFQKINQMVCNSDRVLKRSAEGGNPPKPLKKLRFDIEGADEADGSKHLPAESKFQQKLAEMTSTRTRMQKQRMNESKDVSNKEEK

T2: 3xFLAG-HA tagged wild-type STRA8 (stimulated by retinoic acid 8) (mouse) (UniProt P70278)
T2 sequence: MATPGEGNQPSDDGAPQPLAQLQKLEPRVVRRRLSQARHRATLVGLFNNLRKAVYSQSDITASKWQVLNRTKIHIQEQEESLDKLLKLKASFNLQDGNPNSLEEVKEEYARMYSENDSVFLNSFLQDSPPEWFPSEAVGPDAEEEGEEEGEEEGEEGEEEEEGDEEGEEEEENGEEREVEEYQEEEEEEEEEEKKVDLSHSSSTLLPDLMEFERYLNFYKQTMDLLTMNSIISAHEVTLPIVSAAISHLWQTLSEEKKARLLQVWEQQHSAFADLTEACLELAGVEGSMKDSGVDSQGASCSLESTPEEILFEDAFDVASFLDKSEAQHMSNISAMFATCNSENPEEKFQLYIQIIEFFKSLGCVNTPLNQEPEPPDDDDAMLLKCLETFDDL

T3: Retinoblastoma protein RB1 (mouse (endogenous in testis)), P13405
T3 chain: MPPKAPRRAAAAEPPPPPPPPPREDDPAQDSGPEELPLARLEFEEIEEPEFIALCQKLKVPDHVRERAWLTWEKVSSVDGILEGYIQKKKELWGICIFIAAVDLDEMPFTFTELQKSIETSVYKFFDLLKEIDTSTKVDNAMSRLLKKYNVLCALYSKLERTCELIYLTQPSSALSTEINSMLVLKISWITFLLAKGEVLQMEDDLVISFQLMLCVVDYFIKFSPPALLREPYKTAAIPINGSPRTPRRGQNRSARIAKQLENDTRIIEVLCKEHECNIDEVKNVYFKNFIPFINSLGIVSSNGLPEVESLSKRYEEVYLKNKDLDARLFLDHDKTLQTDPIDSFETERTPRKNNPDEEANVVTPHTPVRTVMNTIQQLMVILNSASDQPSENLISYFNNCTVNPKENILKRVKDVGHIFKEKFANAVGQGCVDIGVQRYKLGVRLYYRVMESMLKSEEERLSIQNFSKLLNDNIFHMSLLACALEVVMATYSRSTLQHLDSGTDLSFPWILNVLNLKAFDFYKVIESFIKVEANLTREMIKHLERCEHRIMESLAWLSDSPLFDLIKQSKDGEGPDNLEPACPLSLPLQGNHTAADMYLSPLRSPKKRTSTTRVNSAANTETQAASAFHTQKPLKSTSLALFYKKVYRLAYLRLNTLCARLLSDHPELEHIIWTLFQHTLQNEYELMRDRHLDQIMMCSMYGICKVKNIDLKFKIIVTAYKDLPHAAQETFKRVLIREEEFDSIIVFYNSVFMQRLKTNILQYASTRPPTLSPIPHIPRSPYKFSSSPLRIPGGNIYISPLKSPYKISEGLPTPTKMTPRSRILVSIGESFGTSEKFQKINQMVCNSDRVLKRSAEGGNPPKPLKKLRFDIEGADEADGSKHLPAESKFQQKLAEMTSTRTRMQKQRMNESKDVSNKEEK


How the values were obtained:
[1] = target: T1, Retinoblastoma protein RB1 (mouse (endogenous in testis)); assay: co-IP; anti-FLAG IP product from Stra8 wt-3FH KI testes (10 to 11-day-old) subjected to a second IP with anti-RB1 antibody crosslinked to protein A-Dynabeads; control rabbit IgG; immunoblot
[2] = target: T2, 3xFLAG-HA tagged wild-type STRA8 (stimulated by retinoic acid 8) (mouse); assay: co-IP; tandem affinity purification with anti-FLAG M2 beads (elution with 3xFLAG peptide) and then anti-HA beads from chromatin-bound testis extracts of 10 to 12-day old knock-in mice; washes with high salt extraction buffer (400 mM KCl); western blot; non-tagged wild-type testis as negative …
[3] = target: T3, Retinoblastoma protein RB1 (mouse …); assay: co-IP; anti-FLAG IP product from Stra8 wt-3FH KI testes (10 to 11-day-old) subjected to a second IP with anti-RB1 antibody crosslinked to protein A-Dynabeads; control rabbit IgG; immunoblot; conditions: remark: other sources report otherwise

Binder	binding [2]	other results
3xFLAG-HA tagged wild-type STRA8 (stimulated by retinoic acid 8) (protein, UniProt P70278 1-393) MATPGEGNQPSDDGAPQPLAQLQKLEPRVVRRRLSQARHRATLVGLFNNLRKAVYSQSDITASKWQVLNRTKIHIQEQEESLDKLLKLKASFNLQDGNPNSLEEVKEEYARMYSENDSVFLNSFLQDSPPEWFPSEAVGPDAEEEGEEEGEEEGEEGEEEEEGDEEGEEEEENGEEREVEEYQEEEEEEEEEEKKVDLSHSSSTLLPDLMEFERYLNFYKQTMDLLTMNSIISAHEVTLPIVSAAISHLWQTLSEEKKARLLQVWEQQHSAFADLTEACLELAGVEGSMKDSGVDSQGASCSLESTPEEILFEDAFDVASFLDKSEAQHMSNISAMFATCNSENPEEKFQLYIQIIEFFKSLGCVNTPLNQEPEPPDDDDAMLLKCLETFDDL	–	binding [1]: binds
Retinoblastoma protein RB1 (protein, UniProt P13405 1-921) MPPKAPRRAAAAEPPPPPPPPPREDDPAQDSGPEELPLARLEFEEIEEPEFIALCQKLKVPDHVRERAWLTWEKVSSVDGILEGYIQKKKELWGICIFIAAVDLDEMPFTFTELQKSIETSVYKFFDLLKEIDTSTKVDNAMSRLLKKYNVLCALYSKLERTCELIYLTQPSSALSTEINSMLVLKISWITFLLAKGEVLQMEDDLVISFQLMLCVVDYFIKFSPPALLREPYKTAAIPINGSPRTPRRGQNRSARIAKQLENDTRIIEVLCKEHECNIDEVKNVYFKNFIPFINSLGIVSSNGLPEVESLSKRYEEVYLKNKDLDARLFLDHDKTLQTDPIDSFETERTPRKNNPDEEANVVTPHTPVRTVMNTIQQLMVILNSASDQPSENLISYFNNCTVNPKENILKRVKDVGHIFKEKFANAVGQGCVDIGVQRYKLGVRLYYRVMESMLKSEEERLSIQNFSKLLNDNIFHMSLLACALEVVMATYSRSTLQHLDSGTDLSFPWILNVLNLKAFDFYKVIESFIKVEANLTREMIKHLERCEHRIMESLAWLSDSPLFDLIKQSKDGEGPDNLEPACPLSLPLQGNHTAADMYLSPLRSPKKRTSTTRVNSAANTETQAASAFHTQKPLKSTSLALFYKKVYRLAYLRLNTLCARLLSDHPELEHIIWTLFQHTLQNEYELMRDRHLDQIMMCSMYGICKVKNIDLKFKIIVTAYKDLPHAAQETFKRVLIREEEFDSIIVFYNSVFMQRLKTNILQYASTRPPTLSPIPHIPRSPYKFSSSPLRIPGGNIYISPLKSPYKISEGLPTPTKMTPRSRILVSIGESFGTSEKFQKINQMVCNSDRVLKRSAEGGNPPKPLKKLRFDIEGADEADGSKHLPAESKFQQKLAEMTSTRTRMQKQRMNESKDVSNKEEK	binds	–
meiosis initiator (MEIOSIN), A0A5K7RLP0 1-589 (protein) MLGSDKFSCFSDQHRARSPSPTDRKDKKNHTNKLRELALLIPVTMKTRDKKYTKKEILLRVLHYIQYLQRNIDMTKALLKLHSSNGKGRFVGPGLNPSAGQTQQQHSTPSSSQKPSLWSTSSKPRKKKFTRVSEHPSWPYNPRRSLALDQAENPNTIHPGLKEENEECATYPGVLSPSTYPTTEPSVSEGDGQGAQLVFLDMAQNIFAYDILSDHAVEVQGGEPNADIKVQRSFFLTRAQPCVSSCRQKLFLCTSSEADKEAPDSDPWLPVWTSEDSPNGSPLALGSSQINTWHVADYLNEILGVSSSLFSSPSKILPDHVLEDGTYFLTEGLLESSPATCEVESPQEKEVSSEGPTGPPNFQSSVSLDHCYLSLSENVKVLSNCGSSSESTDTESLWGQEEVRGVATYPRRTGVFSLAQPSVLQQANPEGLQTSSDEDRDYTWTPTGQSSGLPVASKKIKKVQASQGPVKPKDSRKACPGQVKKKCVNGFIMFCRMNRKQYIRACPGTASTAATKDLAQLWRGMTLEEKKPYCTKARRFSRQNNRIVKQENSSSEDDDGETPKPFYQLLAEKAQVSLGLTSLPTPNCQ	–	binding [3]: no binding

The next lines start with results.

binding [2]	Binder	other results
binds	meiosis initiator (MEIOSIN) (protein, UniProt A0A5K7RLP0 1-589) MLGSDKFSCFSDQHRARSPSPTDRKDKKNHTNKLRELALLIPVTMKTRDKKYTKKEILLRVLHYIQYLQRNIDMTKALLKLHSSNGKGRFVGPGLNPSAGQTQQQHSTPSSSQKPSLWSTSSKPRKKKFTRVSEHPSWPYNPRRSLALDQAENPNTIHPGLKEENEECATYPGVLSPSTYPTTEPSVSEGDGQGAQLVFLDMAQNIFAYDILSDHAVEVQGGEPNADIKVQRSFFLTRAQPCVSSCRQKLFLCTSSEADKEAPDSDPWLPVWTSEDSPNGSPLALGSSQINTWHVADYLNEILGVSSSLFSSPSKILPDHVLEDGTYFLTEGLLESSPATCEVESPQEKEVSSEGPTGPPNFQSSVSLDHCYLSLSENVKVLSNCGSSSESTDTESLWGQEEVRGVATYPRRTGVFSLAQPSVLQQANPEGLQTSSDEDRDYTWTPTGQSSGLPVASKKIKKVQASQGPVKPKDSRKACPGQVKKKCVNGFIMFCRMNRKQYIRACPGTASTAATKDLAQLWRGMTLEEKKPYCTKARRFSRQNNRIVKQENSSSEDDDGETPKPFYQLLAEKAQVSLGLTSLPTPNCQ	–
binds	p107/RB-Like1 (protein, UniProt Q64701 1-1063) MFEDEPHAEGAAAVAAAREALQALCQELNLDEGSAAEALDDFTAIRGNYSLEGEVIHWLACSLYVACRKSIIPTVGKGVMEGNCVSLTRILRSAKLSLIQFFSKMKKWMDMSNLPQEFRERIERLERNFEVSTVIFKKFEPIFLDIFQNPYEEPPKLPRSRKQRRIPCSVKDLFNFCWTLFVYTKGNFRMIGDDLVNSYHLLLCCLDLIFANAIMCPNRRDLLNPSFKGLPSDFHAPDFKAAEEPPCIIAVLCDLHDGLLVEAKGIKEHYFKPYISKLFDKKILKGECLLDLSSFTDNSKAVNKEYEEYVLTVGDFDERIFLGADAEEEIGTPRKFTADTPFGKLTSQASVECNLQQHFEKKRSFAPSTPLTGRRYLQEKEAVTTPVASATQSVSRLQSIVAGLKSAPSEQLLNIFESCMRNPMGNIIKIVKGIGETFCQHYTQSTDKQPGSHIDFAVNRLKLAEILYYKILETIMVQETRRLHGMDMSVLLEQDIFHKSLMACCLEIVLFAYSSPRTFPWIIEVLDLQPFYFYKVIEVVIRSEEGLSRDMVKHLNSIEEQILESLAWTNNSALWEALHASANRVPSCEEVIFPNNFEIGNGGNVQGHLPMMPMSPIIHPRVKEVRTDSGSLRQDMQPLSPISVHERYSSPAAGSAKRRLFGDDPPKDTLMDKIMAEGTKLKIAPSSVTAESLSISPGQALLTMATTTVTGTTGRKVTVPLHGIANDAGEITLVPISMNPTQESTAESPVSLTAQSLIGTSPKQTHLTKAQDAHLTGVSKPKRTGSLALFYRKVYHLASVRLRDLCLKLDVSNELRRKIWTCFEFTLVHCPDLMKDRHLDQLLLCAFYIMAKVTKEERTFQEIMKSYRNQPQANSHVYRSVLLKSIPGGVVVYNGDCEMTDGDIEDATKTPNCSSEPVKEERGDLIKFYNTVYVGRVKSFALKYDLSNQDHIMDAPPLSPFPHIKQQPGSPRRISQQHSLYVSPHKNGAGLTPRSALLYKFNGSPSKSLKDINNMIRQGEQKTKKRVIAISGDADSPAKRLCQENDDVLLKRLQDVVSERANH	–

Source: publication PMC10600341
